The source of these data is PubChem BioAssay AID1645887 (National Center for Advancing Translational Sciences (NCATS), 2021).

Each structure is given as a SMILES string. “And” between values parts separate entries of the source, which are not always exact repeats. Equal values may be shown once. Among all 16,000 compounds or so, about 40 (0.2%) were called active. Roughly 1% stayed inconclusive and do not appear here. The call rests on the fitted dose curve; in most records, active means well fitted activation curve with a large enough effect; inconclusive means small, poorly fitted or top-dose-only effect, or another doubt; inactive means no such curve, though single readings can be large or run the other way. This is one part of the list.
On the % scale 0 is the no-effect control and ±100 the full control effect.

UniProt Q8WZA2, sequence (Q8WZA2 whole entry, looked up): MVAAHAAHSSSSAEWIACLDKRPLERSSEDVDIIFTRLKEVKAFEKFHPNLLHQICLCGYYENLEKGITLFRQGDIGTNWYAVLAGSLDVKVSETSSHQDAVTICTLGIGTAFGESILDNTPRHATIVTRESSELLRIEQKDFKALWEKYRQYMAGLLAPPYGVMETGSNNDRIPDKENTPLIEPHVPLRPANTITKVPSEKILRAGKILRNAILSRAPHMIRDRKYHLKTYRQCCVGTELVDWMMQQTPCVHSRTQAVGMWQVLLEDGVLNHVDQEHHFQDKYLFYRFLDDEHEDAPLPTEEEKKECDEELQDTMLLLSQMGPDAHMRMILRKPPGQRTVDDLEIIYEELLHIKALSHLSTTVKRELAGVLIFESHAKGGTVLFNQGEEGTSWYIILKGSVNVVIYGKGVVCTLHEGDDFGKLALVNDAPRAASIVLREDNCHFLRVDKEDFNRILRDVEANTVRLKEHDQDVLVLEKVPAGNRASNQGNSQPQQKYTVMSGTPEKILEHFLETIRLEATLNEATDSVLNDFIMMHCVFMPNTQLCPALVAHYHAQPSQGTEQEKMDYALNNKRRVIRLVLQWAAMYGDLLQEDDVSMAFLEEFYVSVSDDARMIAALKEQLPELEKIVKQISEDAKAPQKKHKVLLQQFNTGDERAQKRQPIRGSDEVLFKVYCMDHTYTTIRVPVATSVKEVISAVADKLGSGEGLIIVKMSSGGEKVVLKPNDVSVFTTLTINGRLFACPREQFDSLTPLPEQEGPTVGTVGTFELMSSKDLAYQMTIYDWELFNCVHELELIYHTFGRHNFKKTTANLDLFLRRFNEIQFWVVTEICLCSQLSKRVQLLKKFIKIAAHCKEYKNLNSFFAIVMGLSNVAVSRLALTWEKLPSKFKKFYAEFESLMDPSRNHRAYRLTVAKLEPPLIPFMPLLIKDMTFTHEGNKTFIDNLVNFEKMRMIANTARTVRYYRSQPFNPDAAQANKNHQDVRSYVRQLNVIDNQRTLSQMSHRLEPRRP

The target in this experiment is Rap guanine nucleotide exchange factor 4 (Homo sapiens) (UniProt Q8WZA2). Kind of experiment: Validation qHTS for agonist of cAMP-regulated guanine nucleotide exchange factor 4 (EPAC2).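 Further: exchange makes BODIPY-GDP fluorescence drop when released from Rap1B; series mostly up to about 150 µM.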 The conditions noted are these: EPAC2 Rap1B BODIPY-GDP exchange, fluorescence; activation: stronger effect = higher value. The method, boiled down:
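Fluorescent exchange assay: 100 nM EPAC2 with 250 nM RAP1B-BODIPY-GDP and 50 uM GDP; compound added, 5 min at room temperature, then read (ex 480/em 540 nm) every 5 min for 30 min. Normalized to 6.5 mM cAMP agonist control.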
A general note: qHTS replaces the single test concentration by a dilution series.
In the case of `CCCC(=O)c1cc(O)c(O)cc1O`, the activation is inactive: -14.8%.
Turning to `COc1ccc(-c2coc3cc(O)ccc3c2=O)cc1`, the activation is inactive: 2.87% and inactive: -11.7%.
As for `Cc1cnc(-n2ncc(C(=O)N(C)Cc3cccc4ncccc34)c2C(C)C)nc1-c1ccc(F)cc1`, the activation was inactive: -6.77%.
As to `COc1ccccc1CN1CCCC(n2cc(C(=O)N3CCCCC3)nn2)C1` (stereo not given), the activation is inactive: -10.5%.
As for `O=c1c(-c2ccccc2)nc2cnc(N3CCNCC3)nc2n1-c1ccccc1`, the figure is inactive: -4.12%; as for `COC(F)(F)C(Cl)Cl`, inactive: -0.274%.
Turning to `O=C1C(c2c(O)[nH]c3ccccc23)=Nc2ccccc21`, the activation is inactive: -7.63% and inactive: -4.93% and inactive: -0.438%.
The value for `O=C(c1csnn1)N1CCC2(CCCN(Cc3ccccc3)C2)CC1` was inactive: -1.97%.
As for `COCCn1c(=O)c(-c2cccs2)nc2cnc(N3CCNCC3)nc21`, the figure is inactive: 26.7%.
As for `O=C([C@@H]1C[C@@H](Sc2nc3ccccc3[nH]2)CN1Cc1c(F)cccc1F)N1CCOCC1`, the figure is inactive: -18.6%; as for `CCOC(=O)c1ccc(NC(=O)CN2CCCCC2)cc1`, inactive: -10.5%; as for `COc1ccc(CNc2cc(-c3cccnc3)ncn2)c(OC)c1`, inactive: -9.11%.
`COCCn1c(=O)c(C)nc2cnc(OCc3ccccc3)nc21`: the activation was inactive: 2.44%.
As for `O=C(OCCN1CCOCC1)C1(c2ccccc2)CCCCC1`, the figure is inactive: -9.1% and inactive: -0.948% and inactive: -22.3%; as for `CC(C)C[C@H](NC(=O)[C@H](Cc1ccccc1)NC(=O)c1cnccn1)B(O)O`, inactive: 5.79% and inactive: -0.915%.
As for `CC(C)CN1CC[C@@]2(CCCN(C(=O)c3cc(C(F)(F)F)cc(C(F)(F)F)c3)C2)C1`, the activation is inactive: -32.9%.
The value for `CCOC(=O)OC(C)OC(=O)C1N2C(=O)C(NC(=O)C(N)c3ccccc3)C2SC1(C)C` (stereo not given) was inactive: 6.33%; that for `COc1cc(OC)c2cc(-c3ccncc3)cnc2c1` was inactive: -15.1%; that for `O=C(COc1ccc(Cl)cc1)OCCNC12CC3CC(CC(C3)C1)C2` was inactive: 2.49%.
As for `O=C(c1ccncc1)N1CCC2(CC1)CN(Cc1cc(C(F)(F)F)cc(C(F)(F)F)c1)C2`, the figure is inactive: -20.2%; as for `COCCn1c(=O)cnc2cnc(N3CCOCC3)nc21`, inactive: -5.69%.
The value for `CC[C@H](C)[C@H](NC(=O)OCC1c2ccccc2-c2ccccc21)C(=O)O` was inactive: -8.07%; that for `CCN(CC)CCNC(=O)c1ccc(NS(C)(=O)=O)cc1` was inactive: -23.6%; that for `O=C(c1ccncc1)N1CCC[C@@]2(CCN(Cc3ccncc3)C2)C1` was inactive: -17.5%.
On to `O=c1c(-c2cc(F)cc(F)c2)nc2cnc(N3CCNCC3)nc2n1C1CC1`, for which the activation is inactive: -1.29%.
As for `Nc1nc(N)c(N)c(=O)[nH]1`, the figure is inactive: -2.83%; as for `c1cncc(-c2nccc(NCc3cccs3)n2)c1`, inactive: -16.9%.
As for `Cc1nc2cnc(N3CCN(C)CC3)nc2n(-c2ccccc2)c1=O`, the figure is inactive: 1.62%.
As for `Cc1c(Br)cnc2ccccc12`, the figure is inactive: -11.3%; as for `CS(=O)(=O)N1CCC2(CC1)CN(c1cccc(-c3ccccc3)c1)C2`, inactive: -15%; as for `O=C(c1ccco1)N1CCC[C@@]2(CCN(c3ccncc3)C2)C1`, inactive: -7.38%.
With `N#CCCn1c(=O)c(CCc2ccccc2)nc2cnc(Nc3ccccc3)nc21`, the activation is inactive: 4.73%.
With `O=c1c(-c2cccs2)nc2cnc(Oc3cccc(Cl)c3)nc2n1C1CC1`, the activation is inactive: -16.1%.
The value for `O=Cc1cc2c3c(c1)CCCN3CCC2` was inactive: -17.4%; that for `Cc1ncc2c(c1CNS(=O)(=O)N(C)C)CCN(C(=O)c1ccc(-c3ccc(F)cc3)cc1)C2` was inactive: -5.4%; that for `O=S1(=O)CCO[C@H]2Cc3ccccc3[C@H]2N1Cc1ccc(Cl)cc1` was inactive: -19%.
The value for `Cc1ncoc1C(=O)N1CCOc2ccc(CN3CCN(c4ccccn4)CC3)cc2C1` was inactive: -16.9%.
As for `O=S(=O)(c1ccccc1)N1CCC[C@@]2(CCN(c3ccccc3)C2)C1`, the figure is inactive: -3.62%; as for `CC#CCOC(=O)c1c(C)nc2sc3c(c2c1N)CC[C@@H](O)C3`, inactive: -11.9%; as for `COc1cccc(Cn2cc(-c3cccc(C(F)(F)F)c3)nn2)c1`, inactive: -9.01%.
With `CC1(C)C(OC(=O)CCC(=O)O)CC[C@]2(C)C1CC[C@@]1(C)C2C(=O)C=C2[C@@H]3C[C@@](C)(C(=O)O)CC[C@]3(C)CCC21C` (stereo not given in full), the activation is inactive: 6.05%.
As for `COc1cc(C(=O)OC(COCCC(C)C)CN2CCOCC2)cc(OC)c1OC` (stereo not given), the figure is inactive: 1.78%.
Take `CCCc1nc(C(C)(C)O)c(C(=O)OCc2oc(=O)oc2C)n1Cc1ccc(-c2ccccc2-c2nn[nH]n2)cc1`: the activation was inactive: -24.9%.
The value for `CC/C=C\C/C=C\C/C=C\C/C=C\C/C=C\CCCC(=O)O` was inactive: -30.4%.
As for `Cn1cccc1C(=O)N1CCC[C@@]2(CCN(c3ccccn3)C2)C1`, the figure is inactive: -18.8%; as for `Cn1cccc1C(=O)N1CCC[C@@]2(CCN(Cc3ccccc3)C2)C1`, inactive: -8.85%.
Turning to `CSc1nc(C(=O)N2CCOc3ccc(CN4CCN(Cc5ccccn5)CC4)cc3C2)cs1`, the activation is inactive: -17.5%.
The value for `CC1(C)S[C@@H]2[C@H](N=CN3CCCCCC3)C(=O)N2[C@H]1C(=O)O` was inactive: -17.4%.
As for `O=C(O)CNC(=O)CNC(=O)CNC(=O)CSC(=O)c1ccccc1`, the figure is inactive: 6.21%.
As for `COc1ccc(C(=O)N2CCC3(CCN(C(=O)Nc4cccc(C#N)c4)CC3)CC2)cc1`, the figure is inactive: 2.07%; as for `Nc1ccc(C(=O)O)c(O)c1` (tested in a mixture with another compound), inactive: -8.78%; as for `COCCn1c(=O)c(-c2cc(F)cc(F)c2)nc2cnc(OCc3ccccc3)nc21`, inactive: 4.9%.
Turning to `COCCCC/C(=N\OCCN)c1ccc(C(F)(F)F)cc1`, the activation was inactive: -11.9%.
As for `CN(C)c1ncnc2ccc(-c3ccoc3)cc12`, the figure is inactive: -29.9%; as for `COC(=O)N1CCC2(CCCN(c3ccc(-c4ccccc4)cc3)C2)CC1`, inactive: -18.3%; as for `C[C@]12CCC(=O)C=C1CC[C@@H]1[C@@H]2C(=O)C[C@@]2(C)[C@H]1CC[C@]2(O)C(=O)CO`, inactive: -11.5% and inactive: -4.39% and inactive: -41%.
As for `NC(=O)N[C@@H](CCC(=O)O)C(=O)O`, the figure is inactive: -5.18%; as for `O=C[C@H](O)[C@@H](O)[C@H](O[C@H]1O[C@H](CO)[C@@H](O[C@H]2O[C@H](CO)[C@@H](O)[C@H](O)[C@H]2O)[C@H](O)[C@H]1O)[C@H](O)CO`, inactive: 5.51%.
As for `N#Cc1cccc(-c2nc3cnc(Nc4ccccc4)nc3n(C[C@H]3CCCO3)c2=O)c1`, the figure is inactive: -18.9%.
In the case of `O=C(O)CCCc1ccccc1`, the activation was inactive: -10.3%.
The value for `CCN(CC)CCN(C)C(=O)c1ccc(-c2ccccc2)nc1N(C)C` was inactive: -2.74%.
As for `O=c1c(-c2ccc(F)cc2)nc2cnc(N3CCOCC3)nc2n1C[C@H]1CCCO1`, the figure is inactive: 0.0522%.
As for `COc1cccc(Cn2c(=O)c(C)nc3cnc(OCc4ccccc4)nc32)c1`, the figure is inactive: 14.4%; as for `O=C(N[C@@H]1c2ccccc2C2(CCN(C(=O)c3ccc4c(c3)OCCO4)CC2)[C@H]1O)c1cccnc1`, inactive: -5.76%.
In the case of `COCCn1c(=O)c(-c2cccs2)nc2cnc(Oc3cccc(Cl)c3)nc21`, the activation was inactive: -0.976%.
As for `CCOC(=O)C12CC1/C(=N\O)c1ccccc1O2` (stereo not given), the figure is inactive: -2.17%; as for `CC1CC2C3CC(F)C4=CC(=O)C=C[C@@]4(C)[C@@]3(F)C(O)C[C@]2(C)[C@]1(O)C(=O)COC(=O)C(C)(C)C` (stereo not given in full), inactive: 4.02%.
Regarding `CN(C)CC(C)(C)CNC(=O)c1cnn(-c2ncc3c(n2)-c2ccccc2CC3)c1-c1ccco1`, the activation was inactive: -10.5%.
As for `COc1cccc(Cn2c(=O)c(-c3cccc(C#N)c3)nc3cnc(OC)nc32)c1`, the figure is inactive: -5.3%; as for `O=C(CC1(c2cccc(F)c2)CC(=O)N(Cc2cccnc2)C1=O)N1CCCCCCC1` (stereo not given), inactive: -4.64%.
The value for `O=C1C[C@@H]2c3c(cccc3CN1Cc1ccc(Cl)cc1)C[C@@H](O)[C@H]2O` was inactive: -2.96%; that for `CCCCCCCCCCCCCCCCCCO` was inactive: -20.8%; that for `COc1ccccc1CNc1ncncc1-c1cccc(NS(C)(=O)=O)c1` was inactive: 0.28%.
As for `CC(C)N1C[C@@H](Sc2ccccn2)C[C@H]1C(=O)Nc1ccc2c(c1)Nc1ccccc1CC2`, the figure is inactive: -16.9%; as for `COCC(=O)N1CCC2(CC1)CCN(C(c1ccccc1)c1ccccc1)CC2`, inactive: -2.11%; as for `CC(C)C[C@@H](CO)N1CCN(CCc2ccccc2)CCC1=O`, inactive: -11.9%.
Turning to `COc1cccc(-c2nccc(NCc3cccnc3)n2)c1`, the activation is inactive: -10.4%.
The value for `NC1=NCCN1CC(=O)O` was inactive: -30.9%; that for `C[C@@H]([C@H](O)c1ccc(O)cc1)N1CCC(Cc2ccccc2)CC1` was inactive: -6.84%; that for `Cc1c(C(=O)N2CCCCCC2)sc2ncnc(NCC3CCCO3)c12` (stereo not given) was inactive: -6.31%.
The value for `COCC(=O)N1CCC2(CC1)CN(c1ccncc1)C2` was inactive: -11.2%; that for `OC1(c2ccc(Cl)c(C(F)(F)F)c2)CCN(CCCC(c2ccc(F)cc2)c2ccc(F)cc2)CC1` was inactive: -25.1%.
The value for `C[C@@H]1C[C@H]2[C@@H]3CCC4=CC(=O)C=C[C@]4(C)[C@@]3(F)[C@@H](O)C[C@]2(C)[C@@]1(O)C(=O)CO` was inactive: -5.34%; that for `c1ccc(CN2CCC3(CCc4ccccc43)CC2)cc1` was inactive: -15.1% and inactive: 5.62%; that for `CC(CC(c1ccccc1)c1ccccc1)NC(C)(C)C` (stereo not given) was inactive: -5.59%.
